# In the supplement of paper PMC8728848:
# Some of the results follow.
# B1: PX15618B-bfa-464-25-464 (Bacteroides fragilis) (protein)
# chain: DQEPPLYVNENDIFTSPTRIEATLNGLYAAIKNTGTKSLMGGKSYLVFDNRGDDVINISNNLVTLFNTYNMNVGITDAENADTWTYAYLAINKVNTFLQSLEGAREVAGENYDRYVQEAKFVRALAYYYLNNLYPTPYSVNPDAKSVPLRLTAEAGTENNNMPRSTVKQIYEHILSDLENISALDTEVNTYTGVTHATQAAANMLKMRVYMAMNEWDKAITAGELVTGYSLPEDVTLIYKAPYFSQESIFSLPMADTNIPNTQQSLAEYYYDGKIMLIDTKSGIMSKPDYSLATDKRIIAFKGEKDLLMKFTDAKTKLQWVPIFRYAETLLDLAECYANKAGGEATAKSLLKQVRGRSVDAATDPLNIDNLSGDALKEAIYNEKRLEFIGEGIRGIDIMRRGEHFIKVGENETINVGPSDEKYTWPIPQVELLLNKDINK
# Legend:
# Experiment in all cases: glycan array binding signal (z-score within array); higher = stronger binding
# Conditions in all cases: glycan notation: IUPAC condensed, linker removed
# [1] = biological target: Fuc(a1-2)Gal(b1-4)[Fuc(a1-3)]GlcNAc(b1-2)Man(a1-3)[Fuc(a1-2)Gal(b1-4)[Fuc(a1-3)]GlcNAc(b1-2)Man(a1-6)]Man(b1-4)GlcNAc(b1-4)[Fuc(a1-6)]GlcNAc
# Summary of the method: (§1)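 Glycan array data came from 3228 arrays in the Consortium for Functional Glycomics database, and only arrays with an available protein sequence were kept. Glycan names were put into IUPAC-condensed notation, and columns mapping to the same glycan were averaged. The binding signal is a within-array Z-score, averaged across arrays of one protein sequence run at different concentrations or buffers and across linkers. A negative Z-score can be read as non-binding.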
# [2] = biological target: Fuc(a1-2)Gal(b1-4)[Fuc(a1-3)]GlcNAc(b1-2)[Fuc(a1-2)Gal(b1-4)[Fuc(a1-3)]GlcNAc(b1-4)]Man(a1-3)[Fuc(a1-2)Gal(b1-4)[Fuc(a1-3)]GlcNAc(b1-2)Man(a1-6)]Man(b1-4)GlcNAc(b1-4)GlcNAc
# Summary of the method: as §1
# [3] = biological target: Fuc(a1-2)Gal(b1-4)[Fuc(a1-3)]GlcNAc(b1-3)Gal(b1-4)[Fuc(a1-3)]GlcNAc
# Summary of the method: as §1
# [4] = biological target: Fuc(a1-2)Gal(b1-4)[Fuc(a1-3)]GlcNAc(b1-3)Gal(b1-4)[Fuc(a1-3)]GlcNAc(b1-3)Gal(b1-4)[Fuc(a1-3)]GlcNAc
# Summary of the method: as §1
# [5] = biological target: Fuc(a1-2)Gal(b1-4)[Fuc(a1-3)]GlcNAc(b1-3)GalNAc
# Summary of the method: as §1
# [6] = biological target: Fuc(a1-2)Gal(b1-4)[Fuc(a1-3)]GlcNAc(b1-3)[Neu5Ac(a2-6)Gal(b1-4)GlcNAc(b1-6)]Gal(b1-4)Glc
# Summary of the method: as §1
# [7] = biological target: Fuc(a1-2)Gal3S(b1-4)GlcNAc
# Summary of the method: as §1
# [8] = biological target: Fuc(a1-2)Gal6S(b1-3)GlcNAc
# Summary of the method: as §1
# [9] = biological target: Fuc(a1-2)Gal6S(b1-3)GlcNAc6S
# Summary of the method: as §1
# Fuc(a1-2)Gal6S(b1-4)Glc = biological target: Fuc(a1-2)Gal6S(b1-4)Glc
# Summary of the method: as §1
# [10] = biological target: Fuc(a1-2)Gal6S(b1-4)Glc6S
# Summary of the method: as §1
# Fuc(a1-2)[Gal(a1-3)]Gal = biological target: Fuc(a1-2)[Gal(a1-3)]Gal
# Summary of the method: as §1
# [11] = biological target: Fuc(a1-2)[Gal(a1-3)]Gal(b1-3)GalNAc
# Summary of the method: as §1
# [12] = biological target: Fuc(a1-2)[Gal(a1-3)]Gal(b1-3)GalNAc(b1-3)Gal(a1-4)Gal(b1-4)Glc
# Summary of the method: as §1
# [13] = biological target: Fuc(a1-2)[Gal(a1-3)]Gal(b1-3)GlcNAc
# Summary of the method: as §1
# [14] = biological target: Fuc(a1-2)[Gal(a1-3)]Gal(b1-3)GlcNAc(b1-2)Man(a1-3)[Fuc(a1-2)[Gal(a1-3)]Gal(b1-3)GlcNAc(b1-2)Man(a1-6)]Man(b1-4)GlcNAc(b1-4)GlcNAc
# Summary of the method: as §1
# [15] = biological target: Fuc(a1-2)[Gal(a1-3)]Gal(b1-3)GlcNAc(b1-2)Man(a1-3)[Fuc(a1-2)[Gal(a1-3)]Gal(b1-3)GlcNAc(b1-2)Man(a1-6)]Man(b1-4)GlcNAc(b1-4)[Fuc(a1-6)]GlcNAc
# Summary of the method: as §1
# [16] = biological target: Fuc(a1-2)[Gal(a1-3)]Gal(b1-3)GlcNAc(b1-3)GalNAc
# Summary of the method: as §1
# [17] = biological target: Fuc(a1-2)[Gal(a1-3)]Gal(b1-3)GlcNAc(b1-6)GalNAc
# Summary of the method: as §1
# [18] = biological target: Fuc(a1-2)[Gal(a1-3)]Gal(b1-4)Glc
# Summary of the method: as §1
# [19] = biological target: Fuc(a1-2)[Gal(a1-3)]Gal(b1-4)GlcNAc
# Summary of the method: as §1
# [20] = biological target: Fuc(a1-2)[Gal(a1-3)]Gal(b1-4)GlcNAc(b1-2)Man
# Summary of the method: as §1
# [21] = biological target: Fuc(a1-2)[Gal(a1-3)]Gal(b1-4)GlcNAc(b1-2)Man(a1-3)[Fuc(a1-2)[Gal(a1-3)]Gal(b1-4)GlcNAc(b1-2)Man(a1-6)]Man(b1-4)GlcNAc(b1-4)GlcNAc
# Summary of the method: as §1
# [22] = biological target: Fuc(a1-2)[Gal(a1-3)]Gal(b1-4)GlcNAc(b1-2)Man(a1-3)[Fuc(a1-2)[Gal(a1-3)]Gal(b1-4)GlcNAc(b1-2)Man(a1-6)]Man(b1-4)GlcNAc(b1-4)[Fuc(a1-6)]GlcNAc
# Summary of the method: as §1
# [23] = biological target: Fuc(a1-2)[Gal(a1-3)]Gal(b1-4)GlcNAc(b1-3)GalNAc
# Summary of the method: as §1
# [24] = biological target: Fuc(a1-2)[Gal(a1-3)]Gal(b1-4)GlcNAc(b1-3)[Fuc(a1-2)[Gal(a1-3)]Gal(b1-4)GlcNAc(b1-6)]GalNAc
# Summary of the method: as §1
# [25] = biological target: Fuc(a1-2)[Gal(a1-3)]Gal(b1-4)GlcNAc(b1-6)GalNAc
# Summary of the method: as §1
# [26] = biological target: Fuc(a1-2)[Gal(a1-3)]Gal(b1-4)[Fuc(a1-3)]Glc
# Summary of the method: as §1
# [27] = biological target: Fuc(a1-2)[Gal(a1-3)]Gal(b1-4)[Fuc(a1-3)]GlcNAc
# Summary of the method: as §1
# [28] = biological target: Fuc(a1-2)[Gal(a1-3)]Gal(b1-4)[Fuc(a1-3)]GlcNAc(b1-3)GalNAc
# Summary of the method: as §1
# [29] = biological target: Fuc(a1-2)[Gal(a1-4)]Gal(b1-4)GlcNAc
# Summary of the method: as §1
# [30] = biological target: Fuc(a1-2)[GalNAc(a1-3)]Gal
# Summary of the method: as §1
# [31] = biological target: Fuc(a1-2)[GalNAc(a1-3)]Gal(b1-3)GalNAc(a1-3)[Fuc(a1-2)]Gal(b1-4)GlcNAc
# Summary of the method: as §1
# [32] = biological target: Fuc(a1-2)[GalNAc(a1-3)]Gal(b1-3)GalNAc(b1-3)Gal(a1-4)Gal(b1-4)Glc
# Summary of the method: as §1
# [33] = biological target: Fuc(a1-2)[GalNAc(a1-3)]Gal(b1-3)GlcNAc
# Summary of the method: as §1
# [34] = biological target: Fuc(a1-2)[GalNAc(a1-3)]Gal(b1-3)GlcNAc(b1-2)Man(a1-3)[Fuc(a1-2)[GalNAc(a1-3)]Gal(b1-3)GlcNAc(b1-2)Man(a1-6)]Man(b1-4)GlcNAc(b1-4)GlcNAc
# Summary of the method: as §1
# [35] = biological target: Fuc(a1-2)[GalNAc(a1-3)]Gal(b1-3)GlcNAc(b1-2)Man(a1-3)[Fuc(a1-2)[GalNAc(a1-3)]Gal(b1-3)GlcNAc(b1-2)Man(a1-6)]Man(b1-4)GlcNAc(b1-4)[Fuc(a1-6)]GlcNAc
# Summary of the method: as §1
# [36] = biological target: Fuc(a1-2)[GalNAc(a1-3)]Gal(b1-3)GlcNAc(b1-3)GalNAc
# Summary of the method: as §1
binder,measurement,setting,value
B1,glycan array binding signal (z-score),[1],0.793
same,glycan array binding signal (z-score),[2],4.25
same,glycan array binding signal (z-score),[3],0.306
same,glycan array binding signal (z-score),[4],-0.085
same,glycan array binding signal (z-score),[5],-0.338
same,glycan array binding signal (z-score),[6],-0.095
same,glycan array binding signal (z-score),[7],-0.514
same,glycan array binding signal (z-score),[8],-0.718
same,glycan array binding signal (z-score),[9],-0.134
same,glycan array binding signal (z-score),Fuc(a1-2)Gal6S(b1-4)Glc,-0.446
same,glycan array binding signal (z-score),[10],-0.329
same,glycan array binding signal (z-score),Fuc(a1-2)[Gal(a1-3)]Gal,0.473
same,glycan array binding signal (z-score),[11],0.234
same,glycan array binding signal (z-score),[12],0.194
same,glycan array binding signal (z-score),[13],-0.436
same,glycan array binding signal (z-score),[14],-0.235
same,glycan array binding signal (z-score),[15],0.14
same,glycan array binding signal (z-score),[16],-0.254
same,glycan array binding signal (z-score),[17],0.041
same,glycan array binding signal (z-score),[18],0.219
same,glycan array binding signal (z-score),[19],0.138
same,glycan array binding signal (z-score),[20],-0.671
same,glycan array binding signal (z-score),[21],1.41
same,glycan array binding signal (z-score),[22],-0.101
same,glycan array binding signal (z-score),[23],0.508
same,glycan array binding signal (z-score),[24],0.083
same,glycan array binding signal (z-score),[25],-0.501
same,glycan array binding signal (z-score),[26],-0.728
same,glycan array binding signal (z-score),[27],-0.477
same,glycan array binding signal (z-score),[28],-0.444
same,glycan array binding signal (z-score),[29],0.326
same,glycan array binding signal (z-score),[30],-0.445
same,glycan array binding signal (z-score),[31],-0.018
same,glycan array binding signal (z-score),[32],-0.556
same,glycan array binding signal (z-score),[33],-0.308
same,glycan array binding signal (z-score),[34],0.241
same,glycan array binding signal (z-score),[35],0.028
same,glycan array binding signal (z-score),[36],0.481
